From patent publication US20240141060A1, “DOSAGE REGIMES FOR ANTI-CD73 AND ANTI-ENTPD2 ANTIBODIES AND USES THEREOF” (NOVARTIS AG, priority 2021, published 2024)
One block for each molecule: values may come before it.

Columns and labels:
mouse CD73/His = biological target: T1, mouse CD73/His (Mus musculus, UniProt Q61503); assay: Biacore SPR, anti-His antibody capture, mouse CD73/His; assay type: binding
T1 sequence (Q61503 29-551): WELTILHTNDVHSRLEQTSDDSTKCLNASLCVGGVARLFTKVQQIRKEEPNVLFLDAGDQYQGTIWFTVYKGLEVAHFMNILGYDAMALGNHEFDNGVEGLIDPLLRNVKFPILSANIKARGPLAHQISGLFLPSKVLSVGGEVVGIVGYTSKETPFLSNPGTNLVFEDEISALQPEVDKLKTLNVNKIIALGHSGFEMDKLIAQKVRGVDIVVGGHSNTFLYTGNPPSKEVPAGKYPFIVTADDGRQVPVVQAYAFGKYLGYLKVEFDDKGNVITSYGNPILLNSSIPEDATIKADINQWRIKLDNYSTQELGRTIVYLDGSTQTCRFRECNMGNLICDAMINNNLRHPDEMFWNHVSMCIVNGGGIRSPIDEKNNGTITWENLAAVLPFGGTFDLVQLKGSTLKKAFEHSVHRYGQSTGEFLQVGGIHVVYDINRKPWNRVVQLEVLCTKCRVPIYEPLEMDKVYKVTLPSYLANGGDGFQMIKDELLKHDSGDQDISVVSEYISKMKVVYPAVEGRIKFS
Protocol: (§1) The anti-His Ab was directly immobilized onto a CM5 chip surface by amine coupling. The His-tagged human CD73/His, cynomolgus monkey CD73/His, mouse CD73/His or rat CD73/His was flowed over and captured at a desired resonance unit (RU) for an Rmax of 20. Antibody analyte concentrations in serial dilutions of IgG or Fab were flowed over at 60 μL/min. The sensorgrams were analyzed using the manufacturer's software for a 1:1 binding model.

rat CD73/His = biological target: T2, rat CD73/His (Rattus norvegicus, UniProt P21588); assay: Biacore SPR, anti-His antibody capture, rat CD73/His; assay type: binding
T2 sequence (P21588 29-551): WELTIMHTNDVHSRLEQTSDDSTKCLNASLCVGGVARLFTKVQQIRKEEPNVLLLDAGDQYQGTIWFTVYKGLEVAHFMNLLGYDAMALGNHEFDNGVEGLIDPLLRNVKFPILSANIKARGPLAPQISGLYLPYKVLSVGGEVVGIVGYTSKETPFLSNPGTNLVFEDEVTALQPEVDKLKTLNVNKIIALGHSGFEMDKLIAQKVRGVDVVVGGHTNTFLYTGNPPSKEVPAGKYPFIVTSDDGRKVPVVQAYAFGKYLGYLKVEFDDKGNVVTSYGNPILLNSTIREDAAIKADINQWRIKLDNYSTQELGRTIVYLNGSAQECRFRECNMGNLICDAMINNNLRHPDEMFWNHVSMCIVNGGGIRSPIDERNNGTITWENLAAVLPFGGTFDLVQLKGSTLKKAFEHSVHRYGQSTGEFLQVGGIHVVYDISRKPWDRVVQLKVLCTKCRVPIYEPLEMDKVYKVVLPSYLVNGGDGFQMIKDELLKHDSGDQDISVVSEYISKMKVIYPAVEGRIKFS
Protocol: as §1

CD73 = biological target: T3, CD73 (Homo sapiens, UniProt P21589); assay: CD73 target occupancy on human whole blood samples (ex vivo); assay type: cell-based
T3 construct: endogenous in cells; host or cells: CD8+ T cells (modelled)
T3 sequence (P21589 27-549): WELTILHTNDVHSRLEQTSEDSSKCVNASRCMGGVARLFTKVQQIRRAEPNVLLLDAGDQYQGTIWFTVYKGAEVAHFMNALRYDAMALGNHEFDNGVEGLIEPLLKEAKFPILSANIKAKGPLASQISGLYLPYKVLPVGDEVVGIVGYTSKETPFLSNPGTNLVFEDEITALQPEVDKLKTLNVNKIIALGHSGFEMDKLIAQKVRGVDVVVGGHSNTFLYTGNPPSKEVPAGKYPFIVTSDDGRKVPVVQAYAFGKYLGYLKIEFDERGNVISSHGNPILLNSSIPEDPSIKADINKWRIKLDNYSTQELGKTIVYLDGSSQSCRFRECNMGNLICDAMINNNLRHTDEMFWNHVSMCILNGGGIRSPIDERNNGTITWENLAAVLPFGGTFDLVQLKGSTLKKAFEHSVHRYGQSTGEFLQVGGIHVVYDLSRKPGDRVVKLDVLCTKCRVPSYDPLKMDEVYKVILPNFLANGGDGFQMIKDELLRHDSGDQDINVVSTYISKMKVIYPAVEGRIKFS
Excerpt: Isotype control treated samples mimicked blood that had zero target occupancy.

[1] = Phase I/Ib study: headache events and Cmax after first dose (logistic regression); assay type: in vivo, human
recombinant mouse CD73 = biological target: T4, recombinant mouse CD73 (Mus musculus, UniProt Q61503); assay: Biacore affinity of Fabs 350 and 373 (anti-human Fab capture), mouse CD73; assay type: binding; conditions: antigen mCD73, Biacore
T4 construct: His; purchased R&D Systems 4488-EN
T4 sequence (Q61503 29-551): T1 sequence (Q61503 29-551)
Excerpt: (§2) Fabs of mAbs 350 and 373 were generated by engineering a stop between the two proline residues above the core hinge region of the heavy chain of 350 and 373. Both were expressed in Expi293F (ThermoFisher) cells and purified using CaptureSelect IgG CH1 Affinity resin (ThermoFisher).
(§3) Biacore was used to measure cross-species affinity for the Fab materials of mAbs 350 and 373. Proteins used were as follows: recombinant human CD73 (R&D Systems 5795-EN); recombinant cynomolgus monkey CD73 (Sino Biological 90912-C08H); recombinant mouse CD73 (R&D Systems 4488-EN); and recombinant rat CD73 (Sino Biological 80375-R08H). Anti-human Fab (GE Healthcare Life Sciences) was immobilized on all 4 flow cells (Fc) on a CM5 chip (GE). Fabs 350 and 373 were captured on Fc2 and Fc4, at ˜20 RU. 0.01 nM to 90 nM CD73 (3-fold dilution series) was flown over all 4 Fcs. All samples were diluted in running buffer HBS-EP+(pH 7.4, 0.01 M HEPES, 150 mM NaCl, 3 mM EDTA and 0.05% (v/v) P20).

recombinant rat CD73 = biological target: T5, recombinant rat CD73 (Rattus norvegicus, UniProt P21588); assay: Biacore affinity of Fabs 350 and 373 (anti-human Fab capture), rat CD73; assay type: binding; conditions: antigen rCD73, Biacore
T5 construct: purchased Sino Biological 80375-R08H
T5 sequence (P21588 29-551): T2 sequence (P21588 29-551)
Excerpt: as §2, §3

[2] = Cmax after first dose below […]

Binding to mouse CD73/His protein (mouse CD73/His): undetectable
Binding to rat CD73/His protein (rat CD73/His): undetectable
Geometric mean fluorescence intensity of biotinylated 373.A after pretreatment (CD73; unlabeled 373.A 0.17 ng/mL and 0.51 ng/mL, similar to isotype control, donor 1): ~1600 gMFI
Geometric mean fluorescence intensity of biotinylated 373.A after pretreatment (CD73; unlabeled 373.A 0.17 ng/mL and 0.51 ng/mL, similar to isotype control, donor 2): ~2200 gMFI
CD73 target occupancy (CD73; unlabeled 373.A 10 μg/mL to ~0.1 μg/mL): full CD73 target occupancy
Geometric mean fluorescence intensity of biotinylated 373.A after pretreatment (CD73; unlabeled 373.A 10 μg/mL to ~0.1 μg/mL, both donors): ~550 gMFI
B1: 373.A: anti-CD73 antibody 373, IgG4 with S228P mutation; heavy chain SEQ ID NO: 46 wherein X is K (antibody)
heavy: EVQLLESGGGLVQPGGSLRLSCAASGFTFHRYAMSWVRQAPGKGLEWVSAISGSGMNTYYADSVKGRFTISRDNSKNTLYLQMNSLRAEDTAVYYCARGGLYGSGSYLSDFDLWGRGTLVTVSSASTKGPSVFPLAPCSRSTSESTAALGCLVKDYFPEPVTVSWNSGALTSGVHTFPAVLQSSGLYSLSSVVTVPSSSLGTKTYTCNVDHKPSNTKVDKRV[letters of human IgG4 Fc with S228P (EU numbers) left out]
light: EIVLTQSPATLSVSPGERATLSCRASQSVGSNLAWYQQKPGQAPRLLIYGASTRATGIPARFSGSGSGTEFTLTISSLQSEDFAVYYCQQHNAFPYTFGGGTKVEIKRTVAAPSVFIFPPSDEQLKSGTASVVCLLNNFYPREAKVQWKVDNALQSGNSQESVTEQDSKDSTYSLSSTLTLSKADYEKHKVYACEVTHQGLSSPVTKSFNRGEC
Probability to experience Grade 2 or higher headache events [1, 2]: below 25%
Probability to experience Grade 3 or higher headache events [1, 2]: less than 10%
Time to resolution of headaches ([1]; first dose effect): ≤ 48 h
Patients with any grade headache who had the event after the first dose ([1]; patients): > 90%

Binding to mouse CD73/His protein (mouse CD73/His): undetectable
Binding to rat CD73/His protein (rat CD73/His): undetectable
B2: 373.A Fab: Fab fragments of 373.A (antibody)
VH: EVQLLESGGGLVQPGGSLRLSCAASGFTFHRYAMSWVRQAPGKGLEWVSAISGSGMNTYYADSVKGRFTISRDNSKNTLYLQMNSLRAEDTAVYYCARGGLYGSGSYLSDFDLWGRGTLVTVSS
light: B1 light

Kd (M) (recombinant mouse CD73): No Binding
Kd (M) (recombinant rat CD73): No Binding
B3: 373 Fab: Fab of mAb 373, stop engineered above the core hinge of the heavy chain (antibody)
VH: B2 VH
light: B1 light
